No constants are given. Whether binding was seen depends on the method and setting. In cells and extracts the contact can be indirect. Some entries that bind do so weakly or less than the wild type.

The target in test [1] is T1, Smc3 Q67C (S. cerevisiae) (UniProt P47037).
T1 sequence: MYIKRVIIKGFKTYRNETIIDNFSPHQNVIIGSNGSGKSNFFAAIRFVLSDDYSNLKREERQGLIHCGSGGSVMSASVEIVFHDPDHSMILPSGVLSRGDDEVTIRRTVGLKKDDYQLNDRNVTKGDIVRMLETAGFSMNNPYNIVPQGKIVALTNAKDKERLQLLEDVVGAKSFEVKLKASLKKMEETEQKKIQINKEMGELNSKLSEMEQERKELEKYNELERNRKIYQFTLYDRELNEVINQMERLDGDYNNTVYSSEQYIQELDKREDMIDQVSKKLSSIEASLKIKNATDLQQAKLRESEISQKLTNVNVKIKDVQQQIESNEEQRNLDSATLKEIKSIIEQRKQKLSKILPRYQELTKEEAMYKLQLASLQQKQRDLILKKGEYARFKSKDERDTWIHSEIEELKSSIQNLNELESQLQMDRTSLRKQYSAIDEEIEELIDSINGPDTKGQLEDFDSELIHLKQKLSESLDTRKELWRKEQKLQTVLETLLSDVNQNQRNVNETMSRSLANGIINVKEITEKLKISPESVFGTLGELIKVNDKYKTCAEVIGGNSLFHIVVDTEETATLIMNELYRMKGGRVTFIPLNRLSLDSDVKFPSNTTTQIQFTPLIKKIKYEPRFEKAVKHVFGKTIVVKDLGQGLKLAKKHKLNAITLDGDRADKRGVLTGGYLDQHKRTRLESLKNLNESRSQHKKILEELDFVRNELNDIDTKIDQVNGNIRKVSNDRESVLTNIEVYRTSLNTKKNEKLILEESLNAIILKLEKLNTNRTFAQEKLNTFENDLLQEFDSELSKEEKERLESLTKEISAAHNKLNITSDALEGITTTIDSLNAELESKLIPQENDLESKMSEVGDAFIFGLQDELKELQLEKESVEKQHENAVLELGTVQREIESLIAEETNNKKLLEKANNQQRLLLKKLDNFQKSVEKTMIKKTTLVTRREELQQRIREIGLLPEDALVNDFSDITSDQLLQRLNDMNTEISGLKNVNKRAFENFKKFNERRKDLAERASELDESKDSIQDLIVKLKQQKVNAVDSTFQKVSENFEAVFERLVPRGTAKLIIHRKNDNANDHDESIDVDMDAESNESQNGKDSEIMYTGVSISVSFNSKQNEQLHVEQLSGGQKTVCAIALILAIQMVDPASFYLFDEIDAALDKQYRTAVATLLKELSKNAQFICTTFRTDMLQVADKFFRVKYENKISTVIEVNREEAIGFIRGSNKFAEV
In words: cross-linking; in vivo BMOE cross-link of cysteine pairs in exponentially grown yeast cells (on ice, 6 min); Scc1-PK immunoprecipitated, western blot.

A further test deals with T2, Scc1-PK (S. cerevisiae) (UniProt Q12158).
T2 sequence: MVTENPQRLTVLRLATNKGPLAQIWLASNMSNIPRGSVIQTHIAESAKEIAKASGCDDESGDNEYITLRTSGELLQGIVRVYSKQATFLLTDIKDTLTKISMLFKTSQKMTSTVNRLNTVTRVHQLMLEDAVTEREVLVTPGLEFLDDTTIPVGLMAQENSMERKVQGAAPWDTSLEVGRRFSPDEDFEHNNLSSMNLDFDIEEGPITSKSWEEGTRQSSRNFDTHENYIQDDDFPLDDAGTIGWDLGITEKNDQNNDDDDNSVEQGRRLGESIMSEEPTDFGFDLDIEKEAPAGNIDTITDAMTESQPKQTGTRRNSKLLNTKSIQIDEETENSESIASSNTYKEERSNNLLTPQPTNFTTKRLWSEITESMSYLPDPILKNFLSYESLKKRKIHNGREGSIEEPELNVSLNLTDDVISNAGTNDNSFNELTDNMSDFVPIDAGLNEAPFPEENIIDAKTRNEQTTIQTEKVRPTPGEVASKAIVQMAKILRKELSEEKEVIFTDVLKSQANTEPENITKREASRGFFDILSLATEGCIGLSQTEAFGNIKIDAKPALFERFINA
Briefly: co-IP; Scc1-PK immunoprecipitated with anti-PK from whole-cell extracts of cross-linker-treated yeast cells (exponentially grown or late G1 arrested); co-precipitated Smc3-HA, Smc1-Myc or Scc2-FLAG detected by western blot.

B1: Scc2 T1281C (protein, UniProt Q04002 1-1493)
chain: MSYPGKDKNIPGRIIEALEDLPLSYLVPKDGLAALVNAPMRVSLPFDKTIFTSADDGRDVNINVLGTANSTTSSIKNEAEKERLVFKRPSNFTSSANSVDYVPTNFLEGLSPLAQSVLSTHKGLNDSINIEKKSEIVSRPEAKHKLESVTSNAGNLSFNDNSSNKKTKTSTGVTMTQANLAEQYLNDLKNILDIVGFDQNSAEIGNIEYWLQLPNKKFVLTTNCLTKLQMTIKNITDNPQLSNSIEITWLLRLLDVMVCNIKFSKSSLKMGLDDSMLRYIALLSTIVLFNIFLLGKNDSNLHRESYIMEPVNFLSDLIESLKILTIEYGSLKIEFDTFQEALELLPKYIRNGPFLDDNVTAKLVYIFSDLLMNNDIEATTNIQFQSFWDNVKRISSDILVSLFGSFDQQRGFIIEELLSHIEKLPTKRIQKKLRKVGNQNIYITDFTFTLMSMLENINCYSFCNQMKDIAPENIDLLKNEYKKQEEFLFNIVEHINDTILERFFKNPSALRYVIDNFVQDLLLLISSPQWPVTEKILSSLLKRLLSVYSPSMQVSANIETICLQLIGNIGSTIFDIKCSTRDHEDNNLIKMINYPETLPHFFKSFEECIAYNETIKCRRSATRFLWNLRLGTILILEEYTKDAKEQIITVDNELKKILEQIKDGGLGPELENREADFSTIKLDYFSILHAFELLNLYDPYLKLILSLLAKDKIKLRSTAIKCLSMLASKDKVILSNPMVKETIHRRLNDSSASVKDAILDLVSINSSYFEFYQQINNNYNDDSIMVRKHVLRINEKMYDETNDIVTKVYVIARILMKIEDEEDNIIDMARLILLNRWILKVHEVLDQPEKLKEISSSVLLVMSRVAIMNEKCSQLFDLFLNFYLLNKEAHSKEAYDKITHVLTILTDFLVQKIVELNSDDTNEKNSIVDKQNFLNLLAKFADSTVSFLTKDHITALYPYMVSDEKSDFHYYILQVFRCTFEKLANFKQKFLYDLETTLLSRLPKMNVREIDEAMPLIWSVATHRHDTARVAKACSSCLSHLHPYINKANNEEAAIVVDGKLQRLIYLSTGFARFCFPKPSNDKIAFLQEGETLYEHITKCLLVLSKDKITHVIRRVAVKNLTKLCGNHPKLFNSRHVLHLLDKEFQSDQLDIKLVILESLYDLFLLEERKSVRNTGVNSTLSSNSILKKKLLKTNRVEFANDGVCSALATRFLDNILQLCLLRDLKNSLVAIRLLKLILKFGYTNPSHSIPTVIALFASTSQYIRHVAYELLEDLFEKYECLVFSSLSRGVTKAIHYSIHTDEKYYYKHDHFLSLLEKLCGTGKKNGPKFFKVLKRIMQSYLDDITDLTSTNSSVQKSIFVLCTNISNITFVSQYDLVSLLKTIDLTTDRLKEVIMDEIGDNVSSLSVSEEKLSGIILIQLSLQDLGTYLLHLYGLRDDVLLLDIVEESELKNKQLPAKKPDISKFSAQLENIEQYSSNGKLLTYFRKHVKDT
With B1, the binding result in test [1] is “no binding”; with Scc1-PK (S. cerevisiae), “binds”.

B2: Scc2 T1175C (natural protein, S. cerevisiae, UniProt Q04002 1-1493, looked up)
chain: MSYPGKDKNIPGRIIEALEDLPLSYLVPKDGLAALVNAPMRVSLPFDKTIFTSADDGRDVNINVLGTANSTTSSIKNEAEKERLVFKRPSNFTSSANSVDYVPTNFLEGLSPLAQSVLSTHKGLNDSINIEKKSEIVSRPEAKHKLESVTSNAGNLSFNDNSSNKKTKTSTGVTMTQANLAEQYLNDLKNILDIVGFDQNSAEIGNIEYWLQLPNKKFVLTTNCLTKLQMTIKNITDNPQLSNSIEITWLLRLLDVMVCNIKFSKSSLKMGLDDSMLRYIALLSTIVLFNIFLLGKNDSNLHRESYIMEPVNFLSDLIESLKILTIEYGSLKIEFDTFQEALELLPKYIRNGPFLDDNVTAKLVYIFSDLLMNNDIEATTNIQFQSFWDNVKRISSDILVSLFGSFDQQRGFIIEELLSHIEKLPTKRIQKKLRKVGNQNIYITDFTFTLMSMLENINCYSFCNQMKDIAPENIDLLKNEYKKQEEFLFNIVEHINDTILERFFKNPSALRYVIDNFVQDLLLLISSPQWPVTEKILSSLLKRLLSVYSPSMQVSANIETICLQLIGNIGSTIFDIKCSTRDHEDNNLIKMINYPETLPHFFKSFEECIAYNETIKCRRSATRFLWNLRLGTILILEEYTKDAKEQIITVDNELKKILEQIKDGGLGPELENREADFSTIKLDYFSILHAFELLNLYDPYLKLILSLLAKDKIKLRSTAIKCLSMLASKDKVILSNPMVKETIHRRLNDSSASVKDAILDLVSINSSYFEFYQQINNNYNDDSIMVRKHVLRINEKMYDETNDIVTKVYVIARILMKIEDEEDNIIDMARLILLNRWILKVHEVLDQPEKLKEISSSVLLVMSRVAIMNEKCSQLFDLFLNFYLLNKEAHSKEAYDKITHVLTILTDFLVQKIVELNSDDTNEKNSIVDKQNFLNLLAKFADSTVSFLTKDHITALYPYMVSDEKSDFHYYILQVFRCTFEKLANFKQKFLYDLETTLLSRLPKMNVREIDEAMPLIWSVATHRHDTARVAKACSSCLSHLHPYINKANNEEAAIVVDGKLQRLIYLSTGFARFCFPKPSNDKIAFLQEGETLYEHITKCLLVLSKDKITHVIRRVAVKNLTKLCGNHPKLFNSRHVLHLLDKEFQSDQLDIKLVILESLYDLFLLEERKSVRNCGVNSTLSSNSILKKKLLKTNRVEFANDGVCSALATRFLDNILQLCLLRDLKNSLVAIRLLKLILKFGYTNPSHSIPTVIALFASTSQYIRHVAYELLEDLFEKYETLVFSSLSRGVTKAIHYSIHTDEKYYYKHDHFLSLLEKLCGTGKKNGPKFFKVLKRIMQSYLDDITDLTSTNSSVQKSIFVLCTNISNITFVSQYDLVSLLKTIDLTTDRLKEVIMDEIGDNVSSLSVSEEKLSGIILIQLSLQDLGTYLLHLYGLRDDVLLLDIVEESELKNKQLPAKKPDISKFSAQLENIEQYSSNGKLLTYFRKHVKDT
notes: Scc2, S. cerevisiae; source: S. cerevisiae W303, in vivo, whole-cell extract
Consider B2, for which the binding result (in test [1]; in the test with Scc1-PK (S. cerevisiae)) was “binds” throughout.

(Values after PMC10516938, “Conformational dynamics of cohesin/Scc2 loading complex are regulated by Smc3 acetylation and ATP binding” (Nature Communications, 2023).)
